This is an account of results in paper PMC6919601, “Identification of Plasmodium dipeptidyl aminopeptidase allosteric inhibitors by high throughput screening” (PLoS ONE, 2019).

The campaign covered roughly 110,000 compounds. About 230 (0.21%) showed an effect of 50% or more. The list shows a part of the results.
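Note: 30 min substrate incubation versus DMSO and 10 µM JCP410 controls.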

In this assay the target is DPAP1 (Plasmodium falciparum, UniProt Q8IIJ9). Description: primary screen, percent inhibition; read by cleavage of a fluorogenic dipeptide substrate; higher = more effect of the substance. Further details: species or system P. falciparum D10 trophozoite lysates; single well.
Chain of DPAP1 (Q8IIJ9 whole entry, looked up): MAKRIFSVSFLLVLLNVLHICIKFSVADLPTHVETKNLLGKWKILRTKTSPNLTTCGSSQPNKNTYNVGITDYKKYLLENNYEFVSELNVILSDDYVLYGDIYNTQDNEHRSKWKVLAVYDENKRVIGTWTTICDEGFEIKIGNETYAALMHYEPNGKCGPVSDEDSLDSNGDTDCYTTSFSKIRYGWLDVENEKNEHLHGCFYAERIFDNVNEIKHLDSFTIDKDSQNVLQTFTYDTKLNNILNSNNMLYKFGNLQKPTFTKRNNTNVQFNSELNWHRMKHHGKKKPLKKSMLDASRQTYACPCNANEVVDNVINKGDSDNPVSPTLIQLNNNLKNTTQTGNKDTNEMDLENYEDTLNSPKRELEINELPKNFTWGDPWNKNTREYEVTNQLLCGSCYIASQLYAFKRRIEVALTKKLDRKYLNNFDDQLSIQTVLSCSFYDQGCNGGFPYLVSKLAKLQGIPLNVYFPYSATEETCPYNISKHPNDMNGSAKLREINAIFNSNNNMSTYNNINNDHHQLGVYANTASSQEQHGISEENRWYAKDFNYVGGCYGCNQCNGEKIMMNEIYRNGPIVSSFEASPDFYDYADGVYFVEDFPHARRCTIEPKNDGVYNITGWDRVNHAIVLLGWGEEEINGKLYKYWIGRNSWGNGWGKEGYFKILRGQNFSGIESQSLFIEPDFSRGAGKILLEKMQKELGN
For `Cc1ccc(C2(C)CC(C)(C)N(C(=O)CN3C(=O)CCC3=O)c3ccccc32)cc1` (stereo not drawn), the “% Inhibition @ 10 uM” value is listed as -3.26%.
In the case of `CCOCCCNC(=O)Cn1c(=O)c2cccn2c2cccnc21` it was -3.27%; in that of `Cc1nc2nc(NC(=O)c3ccc(C(C)(C)C)cc3)nn2c(C)c1Cl`, 3.66%; in that of `NC(=O)C1CCN(C2CC(=O)N(c3ccc(Br)cc3)C2=O)CC1` (stereo not drawn), 0.658%.
As for `CCSc1nc2c(c(=O)n1C1CCCC1)C1(CCCC1)Cc1ccccc1-2`, the “% Inhibition @ 10 uM” value is reported as -0.436%.
Consider `CN1CCC(N(C)Cc2ccc(-c3ccccc3)cc2)CC1`, for which the “% Inhibition @ 10 uM” value is -5.41%.
For the compound `Cn1c(=O)[nH]c(=O)c2c1nc1oc(-c3ccccc3)cn12`, the “% Inhibition @ 10 uM” value turned out to be 2.16%.
For `CCOC(=O)c1nc(C)[nH]c1C(=O)OCC`, the “% Inhibition @ 10 uM” value is listed as -7.46%.
Take `CCc1ccc(C(C)(O)C(CN2CCOCC2)c2ccccc2)cc1` (stereo not drawn): the “% Inhibition @ 10 uM” value is -2.28%.
With `O=C(NCCOCc1ccc(Cl)cc1)c1cncc(Br)c1`, the “% Inhibition @ 10 uM” value is recorded as -3.04%.
The figure for `OC(COc1ccc2ccccc2c1)CN1CCCC1` (stereo not drawn) is 1.4%; for `Cc1cc(C)n2nc(SCC(=O)NC3CCCC(C)C3C)nc2n1` (stereo not drawn) it is -0.519%; for `Cc1ccc(CNS(=O)(=O)c2ccc(-n3cccn3)cc2)cc1` it is -1.6%.
For the compound `Cc1ccc(NC(=O)c2nc(C)c(C)nc2C(=O)NC(C)C)cc1`, the “% Inhibition @ 10 uM” value is -3.69%.
With `COc1ccc(N2CC(O)Cn3c2nc2c3c(=O)n(C)c(=O)n2C)cc1` (stereo not drawn), the “% Inhibition @ 10 uM” value was 2.75%.
Regarding `COc1ccc(C(=N)NOC(=O)COc2ccc(Cl)cc2C)cc1OC`, the “% Inhibition @ 10 uM” value is recorded as -1.47%.
Consider `O=C(CCN1C(=O)c2ccccc2C1=O)N1CCN(C(=O)c2ccccc2)CC1`, for which the “% Inhibition @ 10 uM” value is given as -7.34%.
Consider `Cc1ccc(C23CC4CC(CC(C(=O)NC(C)C(=O)O)(C4)C2)C3)cc1` (stereo not drawn), for which the “% Inhibition @ 10 uM” value was found to be 7.5%.
As to `COc1ccccc1CNS(=O)(=O)c1c(C)noc1C`, the “% Inhibition @ 10 uM” value was -2.7%.
The figure for `COc1cc2c(cc1OC)C(c1ccccc1)N(S(=O)(=O)c1ccc(C)cc1)CC2` (stereo not drawn) is -1.47%; for `CC(C)C[C@H](NC(=O)c1cc(Br)c(Cl)s1)C(=O)NCC#N` it is -1.82%; for `CCCNC(=O)c1nn2c(C(F)(F)F)cc(-c3ccccc3)nc2c1Cl` it is 5.03%.
Take `O=c1ccn(-c2nc(-c3ccccc3)sc2-c2ccccc2)c(=O)[nH]1`: the “% Inhibition @ 10 uM” value is recorded as 2.65%.
For the compound `CC(=O)c1ccc(OCC(O)CN2C(C)(C)CC(O)CC2(C)C)cc1` (stereo not drawn), the “% Inhibition @ 10 uM” value is given as -1.4%.
Turning to `COc1ccc(C2=NN3C(C2)c2cc(Br)ccc2OC3c2ccncc2)cc1` (stereo not drawn), the “% Inhibition @ 10 uM” value is 27.9%.
In the case of `c1ccc2cc(OCCCN3CCCC3)ccc2c1`, the “% Inhibition @ 10 uM” value was -1.64%.
Turning to `O[C@H]1CC[C@H](NC2C3CC4CC(C3)CC2C4)CC1` (stereo partly drawn), the “% Inhibition @ 10 uM” value was 2.91%.
The figure for `Cc1cc(C)c(S(=O)(=O)NCC2CCC(C(=O)N3CCN(C)CC3)CC2)c(C)c1` (stereo not drawn) is -2.72%; for `S=C(Nc1ccc2nccnc2c1)N1CCCCCC1` it is 2.16%; for `COc1ccc(CC2C(=O)NC(=S)NC2=O)c(OC)c1` it is -2.48%.
For `N#CCNC(=O)C(Cc1cccc(OC(=O)OCc2ccccc2)c1)NC(=O)OCc1ccccc1` (stereo not drawn), the “% Inhibition @ 10 uM” value is -1.83%.
The figure for `CCCN(CCC)C(=O)CSc1ncccc1C(=O)O` is -2.26%; for `C=CCN1C(=O)N/C(=C/c2c(F)cccc2Cl)C1=O` it is -1.6%; for `CC1CCCCN1C(=O)c1ccc(C(=O)N2CCCCC2C)nc1` (stereo not drawn) it is 1.49%.
For `c1ccc(CNc2ncnc3scc(-c4cccs4)c23)nc1`, the “% Inhibition @ 10 uM” value is -4.04%.
Regarding `Cc1ccc(C(=O)NC2CCCC2)cc1[N+](=O)[O-]`, the “% Inhibition @ 10 uM” value turned out to be 1.83%.
In the case of `CCOC(=O)c1c(NC(=O)COc2c(F)c(F)cc(F)c2F)sc(C(=O)N(CC)CC)c1C`, the “% Inhibition @ 10 uM” value is reported as 10%.
On to `COc1ccc(Cc2ccc(OC)c(N)c2)cc1N`, for which the “% Inhibition @ 10 uM” value is reported as 8.06%.
For the compound `CCCCN(CCCC)S(=O)(=O)c1ccc2nc(O)cc(C(=O)NCc3cccnc3)c2c1`, the “% Inhibition @ 10 uM” value is given as -3.12%.
For `CCOC(=O)C1=C(C)NC(=O)NC1c1ccc(F)cc1F` (stereo not drawn), the “% Inhibition @ 10 uM” value is -3.67%.
Turning to `COc1ccc(NCc2ccc(Br)cc2)cc1`, the “% Inhibition @ 10 uM” value was found to be 4.22%.
With `O=C(Nc1ccccc1NC(=O)c1cccs1)c1cccs1`, the “% Inhibition @ 10 uM” value is -1.04%.
For `COc1cc(C(=O)NC(C)C2COc3ccccc3O2)cc(OC)c1OC` (stereo not drawn), the “% Inhibition @ 10 uM” value was -1.29%.
Regarding `COc1ccc(CCNC(=O)CCCn2ncn3c(cc4occc43)c2=O)cc1OC`, the “% Inhibition @ 10 uM” value was 4.55%.
Take `O=C(Nc1ncc(Cc2cccc(C(F)(F)F)c2)s1)c1cc2ccccc2c(=O)o1`: the “% Inhibition @ 10 uM” value came to 3.34%.
For `CSC1=NC(n2ncc(C#N)c2N)c2c(oc3c2CC(C)(C)SC3)N1` (stereo not drawn), the “% Inhibition @ 10 uM” value turned out to be 2.4%.
Consider `C/C(O)=C1/C=C(NC(=O)c2ccccc2)C(=O)N(c2ccccc2)C1=O`, for which the “% Inhibition @ 10 uM” value was -5.48%.
Take `Cc1cc2sc3ccccc3c(=O)c2c(C)c1O`: the “% Inhibition @ 10 uM” value is -4.23%.
Turning to `Cn1c(=O)n(C)c2cc(S(=O)(=O)N3CCOCC3)ccc21`, the “% Inhibition @ 10 uM” value is listed as -2.03%.
Turning to `NC(CC(=O)O)c1ccc(Cl)cc1` (stereo not drawn), the “% Inhibition @ 10 uM” value is on record as -1.69%.
Regarding `NC(=O)CSc1nc2ncccc2c(=O)n1Cc1ccccc1Cl`, the “% Inhibition @ 10 uM” value is -1.66%.
Take `COc1ccc(C2C3CCc4cc(OC)ccc4C3=NN2/C(C)=C/C(C)=O)cc1` (stereo not drawn): the “% Inhibition @ 10 uM” value worked out at 58.5%.
As to `CCCSc1nc2cn(CC)nc2c(=O)n1Cc1ccc(Cl)cc1`, the “% Inhibition @ 10 uM” value is listed as -5.89%.
Take `O=C(NCCO)/C(=C\c1ccc(Cl)cc1)NC(=O)c1ccccc1`: the “% Inhibition @ 10 uM” value is -2.62%.
As to `COc1ccc(C(=O)Nc2cccc(O)c2)cc1OC`, the “% Inhibition @ 10 uM” value came to 2.54%.
`CCOC(=O)Nc1cc(=O)c2ccccc2o1`: the “% Inhibition @ 10 uM” value is given as 5.03%.
`Cc1ccc(C(=O)Nc2sc(C(=O)N(C)C)c(C)c2C#N)cc1`: the “% Inhibition @ 10 uM” value is -1.3%.
Regarding `Cc1ccc(CNC(=O)[C@@H](c2ccccc2)N2Cc3ccccc3C2=O)cc1`, the “% Inhibition @ 10 uM” value turned out to be 1.26%.
In the case of `Cc1ccc(C(=O)N/C(=C/c2ccccc2)C(=O)NCC(=O)O)cc1` it was 0.222%; in that of `Fc1cc(Br)ccc1-n1ncnc1-c1ccccc1`, -1.82%.
As for `Cn1c2c(c(=O)n(C)c1=O)C(c1ccc(F)cc1)C1=C(O)c3ccccc3C1=N2` (stereo not drawn), the “% Inhibition @ 10 uM” value came out at 1.08%.
In the case of `CN1CCC(NCc2ccc(Cl)cc2Cl)CC1` it was -5.65%; in that of `OCCN(CCO)Cc1ccc(Br)cc1`, 0.162%; in that of `COCCNC(=O)c1cc2cc3ccc(OC)cc3nc2o1`, -5.22%.
In the case of `C=CCN(CC=C)C(=O)CSc1nc(C)c(Cl)c(C)c1C#N` it was -0.0108%; in that of `Cc1ccccc1OCC(=O)N(Cc1ccc(Cl)cc1)Cc1ccco1`, -4.02%.
The figure for `COc1ccc(N(CC(=O)Nc2ccc(C)cc2C)S(=O)(=O)c2ccccc2)cc1OC` is -11.1%; for `Cc1ccc2c(cnn2C(=O)CCC(=O)NCCCN2CCOCC2)c1` it is 13.6%; for `c1ccc(CCN2Cc3ccccc3C2)cc1` it is -7.35%.
In the case of `CC(C)C[C@H](NS(=O)(=O)c1ccc(-c2ccccc2)cc1)C(=O)NCC#N`, the “% Inhibition @ 10 uM” value is on record as -3.48%.
On to `O=C(Nc1ccccc1C(=O)Nc1ccccc1)c1ccc(Br)o1`, for which the “% Inhibition @ 10 uM” value is -7.25%.
In the case of `CCOc1cccc(/C=N/n2c(C)nnc2-n2nc(C)cc2C)c1O` it was 0.884%; in that of `Nc1cc(-c2ccccc2)nn1S(=O)(=O)c1ccc(F)c(Cl)c1`, -0.704%.
`CCn1c2ccccc2c2cc(CN3CCN(C)CC3)ccc21`: the “% Inhibition @ 10 uM” value was 2.47%.
In the case of `CCCCN(CC)CCCNC(=O)c1csc2c1CCCCC2`, the “% Inhibition @ 10 uM” value was -1.44%.
Consider `Cc1cc(O)ccc1/N=C/C=C(\O)c1ccc(Cl)cc1`, for which the “% Inhibition @ 10 uM” value came out at 3.62%.
As to `O=C(CCc1nc2cccnc2n1Cc1cccs1)NC1CCCCC1`, the “% Inhibition @ 10 uM” value is given as -9.07%.
`CC(NC(=O)C(F)(F)C(F)(F)C(=O)NC(C)C1CC2CCC1C2)C1CC2CCC1C2` (stereo not drawn): the “% Inhibition @ 10 uM” value is -1.21%.
In the case of `COc1ccc(S(=O)(=O)N2CCN(Cc3cc(OC)c(OC)c(OC)c3)CC2)cc1` it was -7.45%; in that of `Cc1c(S(=O)(=O)c2ccc(Cl)cc2)nnn1-c1cc(F)ccc1F`, -3.68%.
As to `CCCNC(=O)c1ccc(COc2ccc(C(C)(C)C)cc2)o1`, the “% Inhibition @ 10 uM” value amounted to 2.1%.
As for `Cc1ccc(C2(c3ccc(C)cc3)C(=O)NCc3ccccc32)cc1`, the “% Inhibition @ 10 uM” value was -5.08%.
In the case of `C=C(C)[C@@H]1CC=C(CN2CCN(c3ccccc3)CC2)CC1` it was -4.14%; in that of `CCOC(=O)/C(C#N)=C/c1c(Oc2ccc(C)cc2C)nc2c(C)cccn2c1=O`, 2%; in that of `COc1ccc(NC(=O)c2sc3nc(C(F)(F)F)cc(-c4ccco4)c3c2N)cc1OC`, 0.873%.
For the compound `COc1ccc(C2=NS(=O)(=O)N(C)C(C(=O)NCCN3CCOCC3)=C2)cc1`, the “% Inhibition @ 10 uM” value is on record as -1.06%.
As for `Cc1ccc(NS(=O)(=O)c2cccc(C(=O)Nc3ccccc3C(=O)O)c2)cc1`, the “% Inhibition @ 10 uM” value is given as -5.47%.
As for `COc1ccccc1CN1CCc2nc(S)nc(O)c2C1`, the “% Inhibition @ 10 uM” value is -6.85%.
Take `Cn1c(=O)c2c(nc(N3CCCCC3)n2CCN)n(C)c1=O`: the “% Inhibition @ 10 uM” value came to 4.3%.
For the compound `Cc1ccc(S(=O)(=O)N2CCCC2C(=O)Nn2cnnc2)cc1` (stereo not drawn), the “% Inhibition @ 10 uM” value was -4.64%.
Turning to `CC(C)(CO)NS(=O)(=O)c1ccccc1[N+](=O)[O-]`, the “% Inhibition @ 10 uM” value is reported as -0.0217%.
As to `O=C(CCCc1c[nH]c2ccccc12)Nc1cccc2cccnc12`, the “% Inhibition @ 10 uM” value is on record as -3.26%.
The figure for `Cc1onc(-c2c(Cl)cccc2Cl)c1C(=O)NC(c1ccccc1)c1ccccc1` is -8.04%; for `Cc1c(C)n(C)c2ccc(C(=O)NC3CCCCCC3)cc12` it is -0.0309%.
For the compound `c1nc(NCCN2CCOCC2)c2nc3n(c2n1)CCCCC3`, the “% Inhibition @ 10 uM” value was -5.46%.
For `O=C(O)CCC(=O)Nc1ccc(Oc2ccc(NC(=O)CCC(=O)O)cc2)cc1`, the “% Inhibition @ 10 uM” value was -2.72%.
Regarding `CC1CN(c2oc(/C=C/c3cccs3)nc2C#N)CC(C)O1` (stereo not drawn), the “% Inhibition @ 10 uM” value worked out at 3.27%.
In the case of `CCCOc1ccc(N2C(=O)C(Cl)=C(Nc3ccccc3)C2=O)cc1`, the “% Inhibition @ 10 uM” value is recorded as -1.07%.
In the case of `Cc1cc(C)n(C(=O)C2COc3ccccc3O2)n1` (stereo not drawn) it was 0.131%; in that of `COc1ccccc1C1CC(c2ccc(C)cc2)=NN1C(C)=O` (stereo not drawn), -3.97%.
As to `COc1ccc(NC(=O)CN(Cc2ccccc2)S(C)(=O)=O)c(OC)c1`, the “% Inhibition @ 10 uM” value is given as -1.52%.
In the case of `CS(=O)(=O)N(CC(=O)N1CCC(Cc2ccccc2)CC1)Cc1ccccc1`, the “% Inhibition @ 10 uM” value was -15.2%.
